Data: the supplement of paper PMC12217912
The list shows a part of the results. The full chains were built here from the parent and the listed change. Values near 0.05 are background.

B1: TEV protease; numbered along this chain (parent)
chain: MGESLFKGPRDYNPISSSICHLTNESDGHTTSLYGIGFGPFIITNKHLFRRNNGTLVVQSLHGVFKVKDTTTLQQHLVDGRDMIIIRMPKDFPPFPQKLKFREPQREERICLVTTNFQTKSMSSMVSDTSCTFPSGDGIFWKHWIQTKDGQCGSPLVSTRDGFIVGIHSASNFTNTNNYFTSVPKNFMELLTNQEAQQWVSGWRLNADSVLWGGHKVFMVKPEEPFQPVKEATQL

Variants of: B1
Test: raw area under fraction-flipped curve 0-4 h after induction (AUC4h, not background-subtracted), DNA-recorder readout of cleavage of the substrate (dimensionless); higher = more cleavage of the substrate by the protease variant
Conditions: temperature: 34 °C; time window: 0-4 h after rhamnose induction
Experimental: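 In vivo DNA recorder in E. coli TOP10(DE3) ΔrhaA at 34 °C. Each TEVp single-site mutant (parent TEVp 0) is paired with a single-site variant of the 7-mer TEVs (canonical ENLYFQ|S). The substrate sits between flexible linkers in a Bxb1-sfGFP-TEVs-SsrA fusion, so cleavage stabilises Bxb1 and speeds flipping of a recombination array, read by NGS. The value is the raw area under the fraction-flipped curve over 0-4 h after rhamnose induction (AUC4h), with ≥20 reads per time point. It is not background-subtracted; inactive controls average about 0.047.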
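Further: Bxb1 expression induced with 0.2% (w/v) L-rhamnose at OD600 near 0.5, cultures sampled hourly, flipped fraction per protease–substrate barcode pair counted by paired-end Illumina sequencing.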

Variant	area with substrate ENLYAQS	area with substrate ENLYDQS	area with substrate ENLYEQS	area with substrate ENLYGQS	area with substrate ENLYHQS	area with substrate ENLYIQS	area with substrate ENLYKQS	area with substrate ENLYLQS	area with substrate ENLYMQS	area with substrate ENLYNQS	area with substrate ENLYPQS	area with substrate ENLYQQS	area with substrate ENLYRQS	area with substrate ENLYSQS	area with substrate ENLYTQS	area with substrate ENLYWQS	area with substrate ENLYVQS	area with substrate ENLYYQS	area with substrate ENLYCQS
H168W	0.0612	0.0607	0.0603	0.0604	0.064	0.0754	0.0625	0.0782	0.0576	0.0647	0.0605	0.0604	0.0802	0.0673	0.058	0.061			
P155S	0.0482		0.0577	0.045	0.0551	0.0647	0.0586	0.0605	0.0557	0.0605	0.0466	0.0604	0.0535		0.0685		0.0578	0.0055	
K185T	0.0828	0.0597	0.0569	0.0662	0.077	0.106	0.0655	0.102	0.101	0.072	0.0725		0.0624	0.0592	0.0684	0.0775	0.122		0.119
E231H	0.0672		0.0762			0.0917	0.0556		0.0893	0.0684	0.0735	0.0542			0.0655	0.0655	0.137		0.0814
T233K	0.0707	0.0597	0.0595	0.0777	0.0712	0.126	0.0751		0.0982	0.0794	0.0691	0.0596	0.0621	0.0873	0.0982	0.0842	0.161		
T233G	0.0745	0.0587	0.0594	0.0637	0.0679	0.135			0.092	0.0603	0.0723	0.0628	0.0552		0.0874		0.103		0.084
T176Y	0.0804	0.0622	0.0591	0.0705	0.0612	0.0714	0.0625	0.0586	0.0519	0.05	0.0472			0.0473	0.0581	0.0547		0.0621	
N177H	0.0763	0.0345	0.0621			0.0812	0.0634		0.0509	0.0498	0.066	0.0546	0.0649		0.0772	0.105			
N177A	0.0768	0.0612	0.0635	0.0836	0.0733	0.12	0.0935		0.0842	0.0709	0.0775		0.0573	0.088	0.0887	0.0722	0.13	0.0617	
I164C	0.0775	0.0559	0.0633	0.0564	0.0698	0.109	0.0424	0.0731	0.0791	0.0652	0.0732	0.0545	0.0591	0.0744	0.076	0.0409	0.111	0.061	
F226W	0.0681	0.0707	0.0723	0.0667		0.122	0.0804		0.087	0.0687	0.0692	0.0677		0.0739	0.103	0.0944	0.118	0.052	
D161K	0.0656	0.0582	0.0543	0.0643	0.0621		0.0566		0.0507	0.047	0.049	0.0442			0.0462		0.0745	0.0528	0.0586
D161F	0.0537	0.0564	0.0585	0.0523	0.0613	0.0766	0.0388	0.055	0.0516	0.0531	0.0514		0.0451			0.0566	0.0713	0.0445	
V217Q	0.182	0.0577	0.0562	0.0543		0.061	0.0529	0.0862	0.0615	0.0538		0.0672	0.0553	0.0522	0.0448		0.0584		0.061
H215W	0.068	0.0586	0.0648	0.064	0.0649	0.0677	0.0411	0.0474	0.0428	0.0675	0.0586	0.0606	0.0551	0.0591	0.0592	0.0611	0.0519		
H215D	0.0535	0.0484	0.062	0.0587	0.0622	0.0619	0.0487			0.0701	0.0597	0.0622	0.0596			0.0953			
S169T	0.0873	0.0511	0.077	0.0647	0.0691	0.137	0.0569		0.085	0.0856	0.0744		0.0578	0.0826	0.0861	0.0676	0.152	0.0628	0.0875
S169F	0.0507		0.0616	0.0576	0.058	0.0656	0.059		0.0553	0.0659	0.0652	0.0512	0.0711	0.0572		0.0555	0.0677		
A196L	0.0734	0.059	0.066	0.0599	0.0782	0.145	0.0615	0.111	0.0834	0.0774	0.0827	0.063	0.0571	0.0914	0.112		0.145	0.0563	0.114
V220P	0.0664	0.0643	0.0562	0.0648	0.0549	0.0578	0.0715	0.0659	0.0723	0.0589	0.077	0.0661	0.0541		0.077	0.0615	0.097	0.0692	0.0731
V220I	0.0716	0.0341	0.066	0.0632	0.0653		0.0548		0.0885		0.0832			0.0746	0.0768		0.107	0.0997	
T181M	0.0648	0.0624	0.0658	0.0573	0.0718	0.0779	0.0682	0.0604	0.0719	0.0616	0.0829	0.0716	0.0598	0.0643	0.0582		0.0725		0.0672
P222S	0.0693		0.0669	0.0617	0.0607	0.0992	0.0707		0.0808	0.0764	0.0655	0.0575	0.0557	0.0901	0.0649	0.0048	0.0948	0.0659	
